# About 14,000 (4.5%) of roughly 310,000 compounds showed an effect of 50% or more. Effects have a minus sign here. This is one part of the list.
# Target: human ether-à-go-go-related gene (hERG) potassium channel (human, UniProt Q12809)
# Assay: primary screen, population patch clamp on CHO cells stably expressing hERG
# 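Note: peak tail current of the secondary pulse compared with the same well before compound.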
# Sequence of human ether-à-go-go-related gene (hERG) potassium channel (Q12809 whole entry, looked up): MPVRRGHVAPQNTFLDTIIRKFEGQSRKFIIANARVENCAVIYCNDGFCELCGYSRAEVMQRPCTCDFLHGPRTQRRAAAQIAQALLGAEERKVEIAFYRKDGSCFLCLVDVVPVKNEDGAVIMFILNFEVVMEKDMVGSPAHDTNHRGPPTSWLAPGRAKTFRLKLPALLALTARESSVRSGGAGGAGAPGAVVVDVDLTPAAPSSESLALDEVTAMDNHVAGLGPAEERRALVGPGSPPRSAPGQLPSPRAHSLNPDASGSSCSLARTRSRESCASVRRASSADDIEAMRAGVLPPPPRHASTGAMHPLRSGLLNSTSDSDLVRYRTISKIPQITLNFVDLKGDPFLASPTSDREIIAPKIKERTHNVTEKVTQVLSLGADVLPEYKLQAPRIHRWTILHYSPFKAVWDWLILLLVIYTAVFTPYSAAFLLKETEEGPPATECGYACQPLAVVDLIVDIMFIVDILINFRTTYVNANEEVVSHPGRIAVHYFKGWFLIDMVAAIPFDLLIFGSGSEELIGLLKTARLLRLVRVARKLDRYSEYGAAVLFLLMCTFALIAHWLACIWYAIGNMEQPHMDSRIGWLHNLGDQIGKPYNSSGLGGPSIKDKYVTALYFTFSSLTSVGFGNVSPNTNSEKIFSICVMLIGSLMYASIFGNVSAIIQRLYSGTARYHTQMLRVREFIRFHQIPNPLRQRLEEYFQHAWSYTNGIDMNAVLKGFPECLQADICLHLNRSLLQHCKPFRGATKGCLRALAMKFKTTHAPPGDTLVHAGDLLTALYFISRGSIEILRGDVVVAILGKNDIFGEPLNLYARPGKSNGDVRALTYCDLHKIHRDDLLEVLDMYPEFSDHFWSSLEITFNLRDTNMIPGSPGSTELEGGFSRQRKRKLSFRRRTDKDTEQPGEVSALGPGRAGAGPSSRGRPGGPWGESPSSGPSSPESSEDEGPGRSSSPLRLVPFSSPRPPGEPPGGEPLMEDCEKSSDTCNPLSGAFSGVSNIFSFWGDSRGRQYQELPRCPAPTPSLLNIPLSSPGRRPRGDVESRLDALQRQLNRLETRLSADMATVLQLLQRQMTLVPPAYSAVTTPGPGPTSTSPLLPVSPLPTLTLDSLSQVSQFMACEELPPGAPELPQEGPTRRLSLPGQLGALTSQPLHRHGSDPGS
row,Compound,"hERG current change (%, negative = inhibition) at 10uM [%]"
1,O=C(NC1CCc2ccccc21)c1cc(COc2cncc(Cl)c2)on1 (centres unmarked),3.56
2,CC(=C/c1ccc(C(C)C)cc1)/C=N/NC(=O)CSc1ccccn1,-9.64
3,Cc1cc(C)nc(SCc2ccc(C(=O)NNC(=O)Nc3cccc(Cl)c3)cc2)n1,5.53
4,CC1(C)Cc2c(sc(NC(=O)c3ccc(C(=O)c4ccccc4)cc3)c2C#N)C(C)(C)N1,-7.79
5,CC(=O)Nc1cc(C(=O)O)ccc1S(=O)(=O)c1ccc(Cl)cc1,2.83
6,Cn1c(=O)[nH]c(=O)c2c1nc(N1CCOCC1)n2CC(O)COc1ccc2ccccc2c1 (centres unmarked),-35.9
7,COC(=O)c1cc(NS(=O)(=O)c2ccc(N3CCCCC3)c([N+](=O)[O-])c2)cc(C(=O)OC)c1,-4.94
8,Cc1ccc(C(=O)C[n+]2ccc(Cc3ccccc3)cc2)cc1.[Cl-],-73.6
9,CC1(C)CC(=O)C(C=NCCN2CCN(CC(=O)Nc3ccc(Cl)cc3)CC2)=C(O)C1,-36.4
10,COc1ccc(/C=C(/C#N)c2cccnc2)cc1OC,7.23
11,N#Cc1ccccc1S(=O)(=O)N1CCC(C(=O)NCc2ccccc2CN2CCCC2)CC1,-69.1
12,CCOC(=O)c1ccc(N2CCN(c3ccccc3F)CC2)c(NC(=O)Nc2cccc(OC)c2)c1,-2.55
13,Cc1ccc(C2C(C#N)=C(N)Oc3cc(C)oc(=O)c32)o1 (centres unmarked),-1.43
14,CN1CCN(c2ccc(Cl)cc2NS(=O)(=O)c2ccccc2Cl)CC1,-37
15,O=C(NCCc1cccc(Cl)c1)c1cccs1,-8.38
16,CNC(=S)N/N=C/c1ccc(-c2cccc(C(=O)O)c2)o1,-5.18
17,CCN1CCN(c2ccc(NC(=O)c3cc(OC)c(OC)c(OC)c3)cc2)CC1.Cl,8.12
18,C=CC[N+]1(CC#CCOC(c2ccccc2)c2ccccc2)CCOCC1.[Cl-],-0.242
19,COc1ccc(OC)c(-c2csc(-c3cccs3)n2)c1,7.93
20,Cc1ccc(-c2cc(C(F)F)n3ncc(C(=O)Nc4cn(C)nc4C)c3n2)cc1,4.6
21,Cc1cc(OCC(=O)Nc2ccncc2)cc(C)c1Br,12.9
22,CCn1c(SCC(=O)N(C)c2ccccc2)nc2c([nH]c3ccccc32)c1=O,19.4
23,C/C(=C\c1ccccc1)C(=O)NCCCn1ccnc1,-10.1
